# Source: PubChem BioAssay AID894 (National Center for Advancing Translational Sciences (NCATS), 2007)
# Hit rate of the full screen: of about 150,000 compounds, about 6,500 (4.3%) were called active. Inconclusive results, whose numbers are uncertain, are shown with a selection of clear calls. Calls follow the shape of the dose curve; as a rule, active = well fitted inhibition curve with a large enough effect (not every such curve was filed as active); inconclusive = small, poorly fitted or top-dose-only effect, or another doubt; inactive = no such curve, though single readings can be large or run the other way. No potency is given beside an inconclusive call; the fits are too rough.
# Target: 15-hydroxyprostaglandin dehydrogenase [NAD(+)] (Homo sapiens) (UniProt P15428)
# Experiment: qHTS Assay for Inhibitors of HPGD (15-Hydroxyprostaglandin Dehydrogenase)
# Conditions: purified HPGD, NADH fluorescence kinetic, PGE2 substrate; activity change, negative = inhibition: stronger effect = lower value
# How it was run: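 NADH formation kinetics: reaction with 30 uM PGE2 and 1 mM NAD+ (final), 20 nM enzyme, Tris-HCl pH 8 with Tween 20, after 15 min compound preincubation at room temperature. Fluorescence change, last versus first of five reads.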
# % is scaled to controls: 0 for no effect and ±100 for the full control effect; potency is read from the fitted curve at half-maximal effect; tags tell the direction and shape of the fitted curve.
# Chain of UniProt P15428 (P15428 whole entry, looked up): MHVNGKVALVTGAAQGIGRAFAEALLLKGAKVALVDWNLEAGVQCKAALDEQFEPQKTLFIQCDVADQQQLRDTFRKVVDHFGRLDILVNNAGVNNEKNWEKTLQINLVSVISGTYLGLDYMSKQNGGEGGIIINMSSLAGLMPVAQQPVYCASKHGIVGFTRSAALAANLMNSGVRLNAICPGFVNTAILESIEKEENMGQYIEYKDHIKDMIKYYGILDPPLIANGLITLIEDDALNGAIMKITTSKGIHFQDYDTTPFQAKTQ
Structure (SMILES),Potency,"activity change, negative = inhibition"
COc1ccc2c(c1)OCC1=C2CCC2(C)C(=O)CC=C12 (stereo not given),"inconclusive [inhibitor, partial curve]",
Cc1ccc(O)c(NC(=O)C2CC(c3c(F)cccc3Cl)=NO2)c1 (stereo not given),"inconclusive [inhibitor, partial curve, poor fit]",
COC(=O)c1ccc(C(=O)OC)c(NC(=O)CSc2cccc[n+]2[O-])c1,"inconclusive [inhibitor, single point]",
CCOC(=O)c1cnc2cc3c(cn2c1=O)CCCC3,"inconclusive [inhibitor, partial curve]",
CCCOC(=O)c1ccc(NC(=O)CSC2=Nc3ccccc3C3CC=NN23)cc1 (stereo not given),"inconclusive [inhibitor, single point]",
CCCCNC(=O)c1onc(CSc2cccc3ccccc23)c1C(=O)O,"inconclusive [inhibitor, partial curve]",
Cc1cccc(N=C2NN=C(c3c[nH]c4ccccc34)CS2)c1,"inconclusive [inhibitor, partial curve]",
COCCn1c(=O)c(-c2ccc(OC)cc2)nc2cnc(N3CCNCC3)nc21,"inconclusive [inhibitor, partial curve]",
COC(=O)c1c(NC(=O)c2ccoc2C)sc2c1CCC2,"inconclusive [inhibitor, partial curve]",
CN(C)c1cccc(C(=O)OCC(=O)Nc2ccccc2-c2ccccc2)c1,"inconclusive [inhibitor, single point]",
COc1cccc(/C=N/NC(=O)C(=O)N/N=C/c2cccc(OC)c2OC)c1OC,"inconclusive [inhibitor, partial curve]",
Cc1ccc(-n2nc(C(=O)NCc3ccc(C)o3)c3c4ccccc4n(C)c3c2=O)cc1,"inconclusive [inhibitor, partial curve]",
O=C(CCNc1ccc(F)cc1)c1ccco1,,inactive: -2.03%
COc1c2c(cc3c1C(c1c(O)c4ccccc4oc1=O)N(C)CC3)OCO2 (stereo not given),"inconclusive [inhibitor, partial curve]",
COc1ccccc1OCCn1cc(C(=O)c2ccco2)c2ccccc21,"inconclusive [inhibitor, single point]",
N#CC1=C(S)N(c2ccccc2)C(c2ccc(-c3cc(Cl)ccc3Cl)o2)NC1=O (stereo not given),"inconclusive [inhibitor, partial curve, poor fit]",
Cc1ccc(-c2cc(C(=O)O)c3cc(Br)ccc3n2)o1,"inconclusive [inhibitor, partial curve]",
CCCOc1ccc(C(=O)Nc2cc(-c3nn4c(C)nnc4s3)ccc2C)cc1,active: 1.26 µM,
CC(C)CC1(C(=O)NCC2CC2)C=CCN1C(=O)c1ccccc1 (stereo not given),active: 17.8 µM,
COCC(=O)Nc1ccccc1Br,,inactive: -14.2%
Cc1ccc(C(CC(=O)N2CCOCC2)c2ccco2)cc1 (stereo not given),active: 20 µM,
COc1cc(C(c2c(C)[nH][nH]c2=O)c2c(C)[nH][nH]c2=O)ccc1OS(=O)(=O)c1ccccc1,,inactive: -8.06%
Cc1nc(NC(=O)c2ccc(Cl)cc2)sc1Cc1ccc2c(c1)OCO2,"inconclusive [inhibitor, partial curve]",

Structure (SMILES),Potency,"activity change, negative = inhibition"
CCN(CC)S(=O)(=O)c1cccc(C(=O)Nc2cccnc2)c1,,inactive: -11%
CC(/C=N/n1c(-c2ccc(C)cc2)n[nH]c1=S)=C\c1ccco1,active: 2.51 µM,
Cc1cccc(-n2ncc3c(NCc4ccccn4)ncnc32)c1,"inconclusive [inhibitor, partial curve]",
Cc1cc(C)c2c(n1)sc1c(=O)n(-c3ccccc3)c(=O)[nH]c12,"inconclusive [inhibitor, partial curve]",
CC(=O)c1cc2c(cc1NS(=O)(=O)c1ccc(C)cc1)OCCO2,"inconclusive [inhibitor, single point]",
N#Cc1cccc(-c2cc(-n3ccnc3)ncn2)c1,,inactive: -12.1%
O=c1[nH]c(/C=C/c2ccccc2OC(F)F)nc2c1cnn2-c1ccccc1,"inconclusive [inhibitor, partial curve]",
COc1ccc(-c2nnc(OCc3ccccc3)c3ccccc23)cc1,,inactive: -21.4%
CCOC(=O)CC(=O)CSc1nc2c(cc1C#N)CCCCCC2,"inconclusive [inhibitor, partial curve]",
Cc1ccc(N2CSC3=C(C#N)C(c4cccs4)CC(=O)N3C2)cc1 (stereo not given),active: 7.94 µM,
c1ccc2sc(SN3CCOCC3)nc2c1,active: 14.1 µM,
Cc1ccc(-c2nnc(COc3cccc(-n4cnnn4)c3)o2)cc1,,inactive: -26.6%
COc1cc(/C=C/C(=O)Nc2nc3ccc(S(=O)(=O)N(C)C)cc3s2)cc(OC)c1OC,"inconclusive [inhibitor, partial curve]",
CCOCCCn1c(=NC(=O)c2ccc(OC)c(OC)c2)c(C#N)cc2c(=O)n3cccc(C)c3nc21,"inconclusive [inhibitor, partial curve]",
Cc1cccc(N=C2NN=C(c3ccc4c(c3)OCCO4)CS2)c1,,inactive: -14.2%
Cn1c(SCc2cccc3ccccc23)nnc1-c1ccco1,"inconclusive [inhibitor, partial curve]",
O=C(COc1ccccc1)Nc1nnc(-c2ccc(Cl)s2)o1,"inconclusive [inhibitor, partial curve]",
COc1ccccc1N1CCN(C2CCN(C(=O)c3cc(OC)c(OC)c(OC)c3)CC2)CC1,,inactive: -14.6%
COc1ccc(/C=C2/N=C3CCCCCN3C2=O)cc1OC,,inactive: -9.84%
O=C1C=C(O)c2ccccc2C1=O,"inconclusive [inhibitor, partial curve]",
Cc1ccc(OCCC(=O)OCC(=O)N2c3ccccc3CC2C)cc1 (stereo not given),,inactive: -7.38%
COc1ccc(-n2c(-c3ccc(F)cc3)cnc2SCC(=O)NCc2ccco2)cc1,"inconclusive [inhibitor, single point]",
